In ChEMBL document CHEMBL1961873, “Compounds: GSK PKIS; Assays: Nanosyn kinase panel” (2012):
The list shows a part of the results, in another mix than the full data.

Each compound was assayed against T1, 3-phosphoinositide-dependent protein kinase 1 (Homo sapiens) (UniProt O15530). Details: at 0.1 µM.
T1 sequence (whole entry): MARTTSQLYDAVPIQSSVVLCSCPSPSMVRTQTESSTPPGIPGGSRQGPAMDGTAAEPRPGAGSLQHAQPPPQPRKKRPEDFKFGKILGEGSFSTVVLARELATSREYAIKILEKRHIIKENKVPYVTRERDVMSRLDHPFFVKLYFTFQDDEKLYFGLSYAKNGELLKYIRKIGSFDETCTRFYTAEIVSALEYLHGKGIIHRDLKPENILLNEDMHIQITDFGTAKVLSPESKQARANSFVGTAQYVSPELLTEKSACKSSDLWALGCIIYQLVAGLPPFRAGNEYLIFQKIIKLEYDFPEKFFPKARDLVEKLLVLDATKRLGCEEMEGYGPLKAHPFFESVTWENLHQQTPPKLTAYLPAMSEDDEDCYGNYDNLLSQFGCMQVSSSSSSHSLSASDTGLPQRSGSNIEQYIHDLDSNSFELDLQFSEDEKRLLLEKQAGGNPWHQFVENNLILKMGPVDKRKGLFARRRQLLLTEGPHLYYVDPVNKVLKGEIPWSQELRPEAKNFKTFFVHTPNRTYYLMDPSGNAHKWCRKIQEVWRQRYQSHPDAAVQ

Compound | inhibition [%]
O=C1NC(=O)C(c2ccccc2)=C1Nc1ccccc1 | 1.52
CC(C)(C)c1ccc(Oc2nccc(-c3c(-c4ccc(F)cc4)ncn3C3CCNCC3)n2)cc1 | 1.76
Cc1cccc(Oc2nccc(-c3c(-c4ccc(F)cc4)ncn3C3CCNCC3)n2)c1C | -0.35
Fc1ccc(-c2ncn(C3CCNCC3)c2-c2ccnc(Oc3cccc(C(F)(F)F)c3)n2)cc1 | 1.95
Fc1ccc(-c2ncn(C3CCNCC3)c2-c2ccnc(Oc3cccc(F)c3)n2)cc1 | 1.28
O=C1NC(=O)C(c2ccccc2Cl)=C1Nc1cc(Cl)c(O)c(Cl)c1 | 0.58
CS(=O)(=O)c1ccc(Oc2nccc(-c3c(-c4ccc(F)cc4)ncn3C3CCNCC3)n2)cc1 | 0.38
COc1ccccc1C1=C(Nc2ccccc2)C(=O)NC1=O | 3.16
COc1ccccc1Oc1nccc(-c2c(-c3ccc(F)cc3)ncn2C2CCNCC2)n1 | 0.65
NC(=O)CCc1ccccc1Oc1nccc(-c2c(-c3ccc(F)cc3)ncn2C2CCNCC2)n1 | -1.17
Fc1ccc(Oc2nccc(-c3c(-c4ccc(F)cc4)ncn3C3CCNCC3)n2)cc1 | 0.43
O=C1NC(=O)C(c2cccc([N+](=O)[O-])c2)=C1Nc1cc(Cl)c(O)c(Cl)c1 | 1.36
Fc1ccc(-c2ncn(C3CCNCC3)c2-c2ccnc(Oc3ccc(Cl)cc3)n2)cc1 | -0.6
O=C(O)c1ccc(Oc2nccc(-c3c(-c4ccc(F)cc4)ncn3C3CCNCC3)n2)cc1 | -0.16

What follows are compounds tested against cAMP-dependent protein kinase catalytic subunit alpha (Homo sapiens) (UniProt P17612). Details: at 0.1 µM.

Compound | inhibition [%]
O=C1NC(=O)C(c2ccccc2)=C1Nc1ccccc1 | 2.01
CC(C)(C)c1ccc(Oc2nccc(-c3c(-c4ccc(F)cc4)ncn3C3CCNCC3)n2)cc1 | 4.03
Cc1cccc(Oc2nccc(-c3c(-c4ccc(F)cc4)ncn3C3CCNCC3)n2)c1C | 4.13
Fc1ccc(-c2ncn(C3CCNCC3)c2-c2ccnc(Oc3cccc(C(F)(F)F)c3)n2)cc1 | 2.76
Fc1ccc(-c2ncn(C3CCNCC3)c2-c2ccnc(Oc3cccc(F)c3)n2)cc1 | 6.22
O=C1NC(=O)C(c2ccccc2Cl)=C1Nc1cc(Cl)c(O)c(Cl)c1 | 1.04
CS(=O)(=O)c1ccc(Oc2nccc(-c3c(-c4ccc(F)cc4)ncn3C3CCNCC3)n2)cc1 | 2.2
COc1ccccc1C1=C(Nc2ccccc2)C(=O)NC1=O | 1.28
COc1ccccc1Oc1nccc(-c2c(-c3ccc(F)cc3)ncn2C2CCNCC2)n1 | 2.95
NC(=O)CCc1ccccc1Oc1nccc(-c2c(-c3ccc(F)cc3)ncn2C2CCNCC2)n1 | 0.78
Fc1ccc(Oc2nccc(-c3c(-c4ccc(F)cc4)ncn3C3CCNCC3)n2)cc1 | 0.91
O=C1NC(=O)C(c2cccc([N+](=O)[O-])c2)=C1Nc1cc(Cl)c(O)c(Cl)c1 | 3.2
Fc1ccc(-c2ncn(C3CCNCC3)c2-c2ccnc(Oc3ccc(Cl)cc3)n2)cc1 | 7.91
O=C(O)c1ccc(Oc2nccc(-c3c(-c4ccc(F)cc4)ncn3C3CCNCC3)n2)cc1 | 4.08
